31 molecules from article PMC9911399, “Two distinct binding modes provide the RNA-binding protein RbFox with extraordinary sequence specificity” can be followed below.

Where a chain is given by its changes, count along the chain named. This is one part of the list.

T1: RBFOX1 RRM RbFoxmut (Fox-RRM*) (Homo sapiens, UniProt Q9NWB1 109-208, R118D;E147R;N151S;E152T)
T1 sequence: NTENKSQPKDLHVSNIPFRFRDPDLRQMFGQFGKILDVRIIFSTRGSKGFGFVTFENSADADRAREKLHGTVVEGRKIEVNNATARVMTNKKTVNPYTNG

B1: GAAUCAU (DNA:RNA)
RNA: GGGAGACCGGAAUUCAGAUUGUCCGAAUCAUUUAAAUCCCGUCGUAGCCACCA
DNA 1: CAATCTGAATTCCGGTCTCCC
DNA 2: TGGTGGCTACGACGGGATT
B2: CUGGGAU (DNA:RNA)
RNA: B1 RNA with G25C, A26U, A27G, U28G, C29G
DNA 1: CAATCTGAATTCCGGTCTCCC
DNA 2: TGGTGGCTACGACGGGATT
B3: ACAAACU (DNA:RNA)
RNA: B1 RNA with G25A, A26C, U28A, C29A, A30C
DNA 1: CAATCTGAATTCCGGTCTCCC
DNA 2: TGGTGGCTACGACGGGATT
B4: UGAUGUG (DNA:RNA)
RNA: B1 RNA with G25U, A26G, C29G, A30U, U31G
DNA 1: CAATCTGAATTCCGGTCTCCC
DNA 2: TGGTGGCTACGACGGGATT
B5: ACUCACC (DNA:RNA)
RNA: GGGAGACCGGAAUUCAGAUUGUCCACUCACCUUAAAUCCCGUCGUAGCCACCA
DNA 1: CAATCTGAATTCCGGTCTCCC
DNA 2: TGGTGGCTACGACGGGATT
B6: AGGGACU (DNA:RNA)
RNA: B5 RNA with C26G, U27G, C28G, C31U
DNA 1: CAATCTGAATTCCGGTCTCCC
DNA 2: TGGTGGCTACGACGGGATT
B7: GUAGGCC (DNA:RNA)
RNA: B5 RNA with A25G, C26U, U27A, C28G, A29G
DNA 1: CAATCTGAATTCCGGTCTCCC
DNA 2: TGGTGGCTACGACGGGATT
B8: GAUCAUA (DNA:RNA)
RNA: B5 RNA with A25G, C26A, C30U, C31A
DNA 1: CAATCTGAATTCCGGTCTCCC
DNA 2: TGGTGGCTACGACGGGATT
B9: GAGUCGC (DNA:RNA)
RNA: B1 RNA with A27G, A30G, U31C
DNA 1: CAATCTGAATTCCGGTCTCCC
DNA 2: TGGTGGCTACGACGGGATT
B10: ACGCUAG (DNA:RNA)
RNA: B5 RNA with U27G, A29U, C30A, C31G
DNA 1: CAATCTGAATTCCGGTCTCCC
DNA 2: TGGTGGCTACGACGGGATT
B11: UAGCUAC (DNA:RNA)
RNA: B5 RNA with A25U, C26A, U27G, A29U, C30A
DNA 1: CAATCTGAATTCCGGTCTCCC
DNA 2: TGGTGGCTACGACGGGATT
B12: UCAACGG (DNA:RNA)
RNA: B1 RNA with G25U, A26C, U28A, A30G, U31G
DNA 1: CAATCTGAATTCCGGTCTCCC
DNA 2: TGGTGGCTACGACGGGATT
B13: ACUCCGC (DNA:RNA)
RNA: B5 RNA with A29C, C30G
DNA 1: CAATCTGAATTCCGGTCTCCC
DNA 2: TGGTGGCTACGACGGGATT
B14: CCACCAU (DNA:RNA)
RNA: B1 RNA with G25C, A26C, U28C
DNA 1: CAATCTGAATTCCGGTCTCCC
DNA 2: TGGTGGCTACGACGGGATT
B15: CAAGGAG (DNA:RNA)
RNA: B1 RNA with G25C, U28G, C29G, U31G
DNA 1: CAATCTGAATTCCGGTCTCCC
DNA 2: TGGTGGCTACGACGGGATT
B16: AGAUGCG (DNA:RNA)
RNA: B5 RNA with C26G, U27A, C28U, A29G, C31G
DNA 1: CAATCTGAATTCCGGTCTCCC
DNA 2: TGGTGGCTACGACGGGATT
B17: GGCCUUA (DNA:RNA)
RNA: B5 RNA with A25G, C26G, U27C, A29U, C30U, C31A
DNA 1: CAATCTGAATTCCGGTCTCCC
DNA 2: TGGTGGCTACGACGGGATT
B18: GAGACAG (DNA:RNA)
RNA: B1 RNA with A27G, U28A, U31G
DNA 1: CAATCTGAATTCCGGTCTCCC
DNA 2: TGGTGGCTACGACGGGATT
B19: CAAGCAA (DNA:RNA)
RNA: B1 RNA with G25C, U28G, U31A
DNA 1: CAATCTGAATTCCGGTCTCCC
DNA 2: TGGTGGCTACGACGGGATT
B20: CCUUGAC (DNA:RNA)
RNA: B5 RNA with A25C, C28U, A29G, C30A
DNA 1: CAATCTGAATTCCGGTCTCCC
DNA 2: TGGTGGCTACGACGGGATT
B21: GCCUUCA (DNA:RNA)
RNA: B5 RNA with A25G, U27C, C28U, A29U, C31A
DNA 1: CAATCTGAATTCCGGTCTCCC
DNA 2: TGGTGGCTACGACGGGATT
B22: CCCCCUG (DNA:RNA)
RNA: B5 RNA with A25C, U27C, A29C, C30U, C31G
DNA 1: CAATCTGAATTCCGGTCTCCC
DNA 2: TGGTGGCTACGACGGGATT
B23: CGGUGAA (DNA:RNA)
RNA: B1 RNA with G25C, A26G, A27G, C29G, U31A
DNA 1: CAATCTGAATTCCGGTCTCCC
DNA 2: TGGTGGCTACGACGGGATT
B24: GUGUCCG (DNA:RNA)
RNA: B1 RNA with A26U, A27G, A30C, U31G
DNA 1: CAATCTGAATTCCGGTCTCCC
DNA 2: TGGTGGCTACGACGGGATT
B25: GCGCCUC (DNA:RNA)
RNA: B5 RNA with A25G, U27G, A29C, C30U
DNA 1: CAATCTGAATTCCGGTCTCCC
DNA 2: TGGTGGCTACGACGGGATT
B26: AAAUGAC (DNA:RNA)
RNA: B1 RNA with G25A, C29G, U31C
DNA 1: CAATCTGAATTCCGGTCTCCC
DNA 2: TGGTGGCTACGACGGGATT
B27: ACCAUCU (DNA:RNA)
RNA: B5 RNA with U27C, C28A, A29U, C31U
DNA 1: CAATCTGAATTCCGGTCTCCC
DNA 2: TGGTGGCTACGACGGGATT
B28: CUUCUAG (DNA:RNA)
RNA: B5 RNA with A25C, C26U, A29U, C30A, C31G
DNA 1: CAATCTGAATTCCGGTCTCCC
DNA 2: TGGTGGCTACGACGGGATT
B29: AUUAACU (DNA:RNA)
RNA: B5 RNA with C26U, C28A, C31U
DNA 1: CAATCTGAATTCCGGTCTCCC
DNA 2: TGGTGGCTACGACGGGATT
B30: AGUGAAC (DNA:RNA)
RNA: B5 RNA with C26G, C28G, C30A
DNA 1: CAATCTGAATTCCGGTCTCCC
DNA 2: TGGTGGCTACGACGGGATT
B31: UGACCGC (DNA:RNA)
RNA: B5 RNA with A25U, C26G, U27A, A29C, C30G
DNA 1: CAATCTGAATTCCGGTCTCCC
DNA 2: TGGTGGCTACGACGGGATT

This experiment has as its target T1, RBFOX1 RRM RbFoxmut (Fox-RRM*). The experiment in a line: EMSA; HiTS-Eq, 1 nM pool, 10 min; buffer printed only for the single-RNA assays: 10 mM Tris pH 7.5, 150 mM NaCl, 3.4 mM EDTA, 0.001% NP-40, 30 C. The following applies: tags: His6 N-terminal (pET28a); label: 5' 32P. In short, it runs like this:
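Relative association constants, normalised to the cognate motif, were derived by comparing read counts of each RNA species with those of the control reaction. The RNA sequenced was the free fraction, separated by 8% native PAGE after a 10 min equilibration in 50 µL of 1 nM 5′-radiolabelled RNA (7 randomized nucleotides) with increasing concentrations of purified wild-type or mutant RbFox RRM.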
In the case of B1, the binding signal was 0.264 KA relative to UGCAUGU. Under B2 stands 0.0962 KA relative to UGCAUGU; under B3, 0.0787 KA relative to UGCAUGU. As for B4, the figure is 0.184 KA relative to UGCAUGU; as for B5, 0.114 KA relative to UGCAUGU; as for B6, 0.0576 KA relative to UGCAUGU.

Consider B7, for which the binding signal was 0.17 KA relative to UGCAUGU. Under B8 stands 0.0779 KA relative to UGCAUGU. Under B9 stands 0.114 KA relative to UGCAUGU. As to B10, the binding signal is 0.108 KA relative to UGCAUGU.

B11: the binding signal was 0.104 KA relative to UGCAUGU. Under B12 stands 0.061 KA relative to UGCAUGU; under B13, 0.0838 KA relative to UGCAUGU. As for B14, the figure is 0.0986 KA relative to UGCAUGU; as for B15, 0.112 KA relative to UGCAUGU. B16: the binding signal is 0.137 KA relative to UGCAUGU. Under B17 stands 0.0924 KA relative to UGCAUGU.

For B18, the binding signal was 0.0457 KA relative to UGCAUGU.

In the case of B19, the binding signal is 0.0563 KA relative to UGCAUGU. As for B20, the figure is 0.0825 KA relative to UGCAUGU; as for B21, 0.146 KA relative to UGCAUGU.

For the molecule B22, the binding signal is 0.121 KA relative to UGCAUGU. Under B23 stands 0.116 KA relative to UGCAUGU. Under B24 stands 0.216 KA relative to UGCAUGU; under B25, 0.0575 KA relative to UGCAUGU. As for B26, the figure is 0.0561 KA relative to UGCAUGU; as for B27, 0.0489 KA relative to UGCAUGU; as for B28, 0.146 KA relative to UGCAUGU. Take B29: the binding signal was 0.112 KA relative to UGCAUGU. For the molecule B30, the binding signal is 0.104 KA relative to UGCAUGU. As for B31, the figure is 0.0732 KA relative to UGCAUGU.
